Test results reported in publication PMC4336329 (PLoS ONE, 2015).
The campaign covered roughly 310,000 compounds. About 2,200 (0.71%) showed an effect of 50% or more. Effects have a minus sign here. This is one part of the list.

The molecules below were run against human ether-à-go-go-related gene (hERG) potassium channel (human, UniProt Q12809) (assay: primary screen, population patch clamp on CHO cells stably expressing hERG).
Sequence of human ether-à-go-go-related gene (hERG) potassium channel (Q12809 whole entry, looked up): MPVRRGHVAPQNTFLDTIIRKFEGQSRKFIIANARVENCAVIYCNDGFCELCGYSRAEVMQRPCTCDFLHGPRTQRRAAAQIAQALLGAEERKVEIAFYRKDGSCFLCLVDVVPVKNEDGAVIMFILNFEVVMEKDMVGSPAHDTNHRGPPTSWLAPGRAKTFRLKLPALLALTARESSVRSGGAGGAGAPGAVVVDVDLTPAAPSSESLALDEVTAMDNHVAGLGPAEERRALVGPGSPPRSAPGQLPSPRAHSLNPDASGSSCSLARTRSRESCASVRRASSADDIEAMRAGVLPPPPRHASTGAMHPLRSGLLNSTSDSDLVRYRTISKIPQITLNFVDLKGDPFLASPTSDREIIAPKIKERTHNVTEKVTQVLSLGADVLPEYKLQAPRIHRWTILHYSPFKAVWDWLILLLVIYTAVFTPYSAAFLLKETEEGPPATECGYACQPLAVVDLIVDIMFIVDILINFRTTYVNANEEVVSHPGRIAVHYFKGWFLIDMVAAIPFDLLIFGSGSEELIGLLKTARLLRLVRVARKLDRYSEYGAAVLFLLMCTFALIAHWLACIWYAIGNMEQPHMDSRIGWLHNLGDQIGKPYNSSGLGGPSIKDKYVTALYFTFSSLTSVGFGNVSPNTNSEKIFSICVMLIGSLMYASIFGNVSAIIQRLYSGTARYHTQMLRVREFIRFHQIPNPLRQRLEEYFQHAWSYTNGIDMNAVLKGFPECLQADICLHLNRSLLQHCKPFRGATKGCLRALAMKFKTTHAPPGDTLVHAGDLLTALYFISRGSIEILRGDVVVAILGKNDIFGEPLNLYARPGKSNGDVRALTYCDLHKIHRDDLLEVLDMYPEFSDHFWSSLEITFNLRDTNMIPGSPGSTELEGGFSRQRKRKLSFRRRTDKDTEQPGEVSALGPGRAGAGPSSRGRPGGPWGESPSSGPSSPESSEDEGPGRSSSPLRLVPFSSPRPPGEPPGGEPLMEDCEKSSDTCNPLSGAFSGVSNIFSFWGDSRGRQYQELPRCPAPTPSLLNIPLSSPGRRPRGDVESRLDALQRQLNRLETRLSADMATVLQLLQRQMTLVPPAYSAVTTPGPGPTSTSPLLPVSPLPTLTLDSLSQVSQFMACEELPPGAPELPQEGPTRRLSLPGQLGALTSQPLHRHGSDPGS

First: CCOc1ccccc1/C=C(/NC(=O)c1ccccc1)C(=O)NC(C)c1ccccc1 (centres unmarked)
Second: COC(=O)/C(=C\c1ccc2c(c1)c1ccccc1n2C)NC(=O)c1ccccc1
The “hERG current change (%, negative = inhibition) at 1uM” value of the first is higher: -4.29% for the first, -7.88% for the second.

First: CC(C)c1ccc2c(c1)C1(NN=C(c3ccccc3)S1)C(=O)N2 (centres unmarked)
Second: Cc1nn(-c2cccc([N+](=O)[O-])c2)c(N)c1-c1ccccc1
The “hERG current change (%, negative = inhibition) at 1uM” value of the first is higher: 7.95% for the first, -5.64% for the second.

Compared with CCn1c(/C=C/c2c(C)[nH]c3ccccc23)nc2ccccc2c1=O, O=S(=O)(Nc1nc2ccccc2[nH]1)c1ccc2ccccc2c1 is higher in “hERG current change (%, negative = inhibition) at 1uM” value: 2.62% for the first, 4.26% for the second.

Compared with Cc1c(Cl)cccc1NS(=O)(=O)c1ccc2c(c1)C1C=CCC1C(c1ccc(C(=O)O)cc1)N2 (centres unmarked), O=C(O)c1ccc(NC(=S)NC(=O)c2ccc3ccccc3c2)cc1 is lower in “hERG current change (%, negative = inhibition) at 1uM” value: 19.9% for the first, -4.32% for the second.

Going from C=C1C(=O)O[C@@H]2C[C@@H](C)[C@@H]3C4OC4C(=O)[C@@]3(C)[C@@H](O)[C@H]12 (some centres unmarked) to C/C=C/c1ccc(OCCN2C(=O)NC(C)(C)C2=O)c(OC)c1, the “hERG current change (%, negative = inhibition) at 1uM” value rises from 4.34% to 9.17%.

First: O=C(/C=C/c1ccco1)NCCc1ccc(F)cc1
Second: O=C(CNC(=O)[C@@H]1Cc2ccccc2CN1)NCc1ccco1
The “hERG current change (%, negative = inhibition) at 1uM” value of the first is higher: 13.2% for the first, 12.3% for the second.

Compared with O=C(c1cnn2c(C(F)F)cc(C3CC3)nc12)N1CCOCC1, O=C(c1ccc(F)cc1)c1c[nH]c(C(=O)NCCCN2CCOCC2)c1 is higher in “hERG current change (%, negative = inhibition) at 1uM” value: 7.49% for the first, 10.4% for the second.

Going from CN1CCN(C(=O)CN2C(=O)CC(C)(C)S(=O)(=O)c3ccccc32)CC1 to CCc1cccc(C)c1N1C(=O)CC(C)(C)CC1=O, the “hERG current change (%, negative = inhibition) at 1uM” value falls from 15.7% to 13.1%.

First: O=C(Nc1ccccc1C(=O)N1CCCCC1)NC1CCCCC1
Second: Cc1ccc(C)c(N2CCN(C(=S)NC3CCCCC3)CC2)c1
The “hERG current change (%, negative = inhibition) at 1uM” value of the first is higher: 7.82% for the first, 3.11% for the second.

First: CC1Oc2ccccc2C=C1/C=N/Nc1ccc(C(=O)O)cc1 (centres unmarked)
Second: O=C(Nc1ccc(Br)cc1)c1ccc2c(c1)OCO2
The “hERG current change (%, negative = inhibition) at 1uM” value of the first is lower: 7.72% for the first, 11.3% for the second.

Going from O=C(Cc1ccc([N+](=O)[O-])cc1)NNC(=O)c1ccc2c(c1)OCO2 to CC(C)Oc1cccc(C(=O)C2CCCN(C(=O)c3ccc4c(c3)OCO4)C2)c1 (centres unmarked), the “hERG current change (%, negative = inhibition) at 1uM” value rises from 6.28% to 9.61%.

Going from CCc1cccc2c1NC(=O)C21OCCO1 to COc1cccc(C2CC(=O)Nc3cc4c(cc32)OCCO4)c1OC(C)C (centres unmarked), the “hERG current change (%, negative = inhibition) at 1uM” value rises from 15% to 16.8%.

Going from CCOc1ccc2[nH]c(C(=O)N/N=C/c3ccccc3OC)cc2c1 to CCOc1ccc(C(=O)Nc2ccc3[nH]ncc3c2)cc1, the “hERG current change (%, negative = inhibition) at 1uM” value falls from 32.1% to 20.8%.

Compared with C#CCN1C(=O)S/C(=C\c2ccc(-c3ccc(C(=O)O)cc3C)o2)C1=O, COc1cc(NC(=O)c2ccc3c(c2)C(=O)N(CCC(C)C)C3=O)c(C(=O)O)cc1OC is higher in “hERG current change (%, negative = inhibition) at 1uM” value: 14.2% for the first, 16% for the second.

Compared with C/C(=N\OC(=O)c1cccc(C(F)(F)F)c1)c1sc(-c2ccccc2)nc1C, CCOC(=O)c1cc(C#N)c(Oc2ccc(F)cc2)nc1-c1ccccc1 is higher in “hERG current change (%, negative = inhibition) at 1uM” value: 13.1% for the first, 13.6% for the second.

First: O=C(O)CC1(CC(=O)NCc2ccccn2)CCCCC1
Second: CNC(=O)NC(=O)C(C)OC(=O)c1cc2c(s1)CCCCC2 (centres unmarked)
The “hERG current change (%, negative = inhibition) at 1uM” value of the first is higher: 11.4% for the first, -11.3% for the second.

First: COc1ccccc1C(NC(C)=O)c1cc(Cl)c2cccnc2c1O (centres unmarked)
Second: CCOc1ccccc1NC(=O)Cn1c(=O)c(OCC)nc2cnccc21
The “hERG current change (%, negative = inhibition) at 1uM” value of the first is lower: 10.7% for the first, 11.4% for the second.

Going from CCCCn1c(N)c(N(CCOC)C(=O)c2cccc(S(=O)(=O)N3CCCCC3)c2)c(=O)[nH]c1=O to CN(C)c1nc(Oc2ccc(=O)[nH]n2)nc(N2CCCCC2)n1, the “hERG current change (%, negative = inhibition) at 1uM” value falls from 18.2% to 5.54%.

First: CN1C(=O)CC(c2cn(Cc3ccccc3)c3ccccc23)C1=O (centres unmarked)
Second: CC1C(=O)N(Cc2ccc(F)cc2)c2ccccc2N1C(=O)c1c(F)cccc1F (centres unmarked)
The “hERG current change (%, negative = inhibition) at 1uM” value of the first is lower: 4.03% for the first, 15.7% for the second.

Going from COC(=O)C1=C(C(=O)OC)[C@@H]2N(C)c3ccc(OC)cc3[C@@]23C[C@@H](C(=O)OC)N(C(=O)c2ccco2)C3=N1 to CCN(CC)S(=O)(=O)c1ccc(OC)c(NC(=O)CSc2cc(C)ccc2C)c1, the “hERG current change (%, negative = inhibition) at 1uM” value rises from -0.967% to 11%.

First: O=P(COc1ccccc1)(c1ccccc1)c1ccccc1
Second: O=C(c1ccc2nc(-c3ccco3)c(-c3ccco3)nc2c1)N1CCN(c2ccccc2)CC1
The “hERG current change (%, negative = inhibition) at 1uM” value of the first is higher: -4.86% for the first, -5.7% for the second.

First: CC(C)c1cc(C(N)=O)c(NC(=O)c2cccc(COc3ccc(Br)cc3)c2)s1
Second: Cn1nnc2cc(C(=O)Nc3ccc(Cl)cc3)ccc21
The “hERG current change (%, negative = inhibition) at 1uM” value of the first is higher: 19% for the first, 9.5% for the second.

Compared with CNc1oc(-c2cccs2)nc1C#N, CCC1CCc2c(sc(NC(C)=O)c2C#N)C1 (centres unmarked) is higher in “hERG current change (%, negative = inhibition) at 1uM” value: 0.194% for the first, 8.69% for the second.

First: Cc1cc(OC(=O)c2ccc(C)c(C)c2)c([N+](=O)[O-])c(=O)[nH]1
Second: Cc1nc(SCc2ccc(C(=O)O)cc2)c2c(C)c(C)sc2n1
The “hERG current change (%, negative = inhibition) at 1uM” value of the first is higher: 15.8% for the first, -3.11% for the second.

Going from C/C(=N/NC(=O)CNC(=O)C1COc2ccccc2O1)c1cccc(O)c1 (centres unmarked) to O=C(NCCCNC(=O)c1cnccn1)c1cccc(F)c1, the “hERG current change (%, negative = inhibition) at 1uM” value rises from 8.79% to 18.6%.

First: CC(C)N1C(=O)/C(=C/C=C/c2ccco2)C(=O)N(Cc2ccco2)C1=O
Second: Cn1c(N)c(C(=O)CSc2nc(C3CC3)n(-c3ccccc3)n2)c(=O)[nH]c1=O
The “hERG current change (%, negative = inhibition) at 1uM” value of the first is higher: 13.3% for the first, 5.72% for the second.

Going from Cc1cc(Cl)ccc1C(=O)C1CCCN(C2CCSCC2)C1 (centres unmarked) to Cc1nnc(SCC(=O)N(Cc2ccccc2)C(C)(C)C)[nH]c1=O, the “hERG current change (%, negative = inhibition) at 1uM” value rises from -49.3% to 15%.

First: CCOc1ccc(NC(=O)CN(c2ccc(OCC)cc2)S(=O)(=O)c2c(C)[nH]c(=O)[nH]c2=O)cc1
Second: Cn1c(=S)ccc2ccccc21
The “hERG current change (%, negative = inhibition) at 1uM” value of the first is higher: 13.4% for the first, 12.3% for the second.
